The list shows a part of the results.
Legend:
Test in all cases: glycan array binding signal (z-score within array); higher = stronger binding
Details in all cases: glycan notation: IUPAC condensed, linker removed
[1] = target: Neu5Ac(a2-3)Gal(b1-3)GlcNAc(b1-6)GalNAc
Method in brief: (§1)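 Glycan array data came from 3228 arrays in the Consortium for Functional Glycomics database, and only arrays with an available protein sequence were kept. Glycan names were put into IUPAC-condensed notation, and columns mapping to the same glycan were averaged. The binding signal is a within-array Z-score, averaged across arrays of one protein sequence run at different concentrations or buffers and across linkers. A negative Z-score can be read as non-binding.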

[2] = target: Neu5Ac(a2-3)Gal(b1-3)GlcNAc6S
Method in brief: as §1

[3] = target: Neu5Ac(a2-3)Gal(b1-3)[Fuc(a1-4)]GlcNAc
Method in brief: as §1

[4] = target: Neu5Ac(a2-3)Gal(b1-3)[Fuc(a1-4)]GlcNAc(b1-3)Gal(b1-3)[Fuc(a1-4)]GlcNAc
Method in brief: as §1

[5] = target: Neu5Ac(a2-3)Gal(b1-3)[Fuc(a1-4)]GlcNAc(b1-3)Gal(b1-4)[Fuc(a1-3)]GlcNAc
Method in brief: as §1

[6] = target: Neu5Ac(a2-3)Gal(b1-3)[GlcNAc(b1-6)]GalNAc
Method in brief: as §1

[7] = target: Neu5Ac(a2-3)Gal(b1-3)[Neu5Ac(a2-6)]GalNAc
Method in brief: as §1

[8] = target: Neu5Ac(a2-3)Gal(b1-3)[Neu5Ac(a2-6)]GlcNAc(b1-3)[Fuc(a1-3)[Gal(b1-4)]GlcNAc(b1-6)]Gal(b1-4)Glc
Method in brief: as §1

[9] = target: Neu5Ac(a2-3)Gal(b1-3)]Neu5Ac(a2-3)Gal(b1-4)]GlcNAc
Method in brief: as §1

Neu5Ac(a2-3)Gal(b1-4)Glc = target: Neu5Ac(a2-3)Gal(b1-4)Glc
Method in brief: as §1

[10] = target: Neu5Ac(a2-3)Gal(b1-4)GlcNAc
Method in brief: as §1

[11] = target: Neu5Ac(a2-3)Gal(b1-4)GlcNAc(b1-2)Man
Method in brief: as §1

[12] = target: Neu5Ac(a2-3)Gal(b1-4)GlcNAc(b1-2)Man(a1-3)[GlcNAc(b1-4)][Neu5Ac(a2-3)Gal(b1-4)GlcNAc(b1-2)Man(a1-6)]Man(b1-4)GlcNAc(b1-4)GlcNAc
Method in brief: as §1

[13] = target: Neu5Ac(a2-3)Gal(b1-4)GlcNAc(b1-2)Man(a1-3)[Neu5Ac(a2-3)Gal(b1-4)GlcNAc(b1-2)Man(a1-6)]Man(b1-4)GlcNAc(b1-4)GlcNAc
Method in brief: as §1

[14] = target: Neu5Ac(a2-3)Gal(b1-4)GlcNAc(b1-2)Man(a1-3)[Neu5Ac(a2-3)Gal(b1-4)GlcNAc(b1-2)Man(a1-6)]Man(b1-4)GlcNAc(b1-4)[Fuc(a1-6)]GlcNAc
Method in brief: as §1

[15] = target: Neu5Ac(a2-3)Gal(b1-4)GlcNAc(b1-2)Man(a1-3)[Neu5Ac(a2-6)Gal(b1-4)GlcNAc(b1-2)Man(a1-6)]Man(b1-4)GlcNAc(b1-4)GlcNAc
Method in brief: as §1

[16] = target: Neu5Ac(a2-3)Gal(b1-4)GlcNAc(b1-2)[Neu5Ac(a2-3)Gal(b1-4)GlcNAc(b1-4)]Man(a1-3)[GlcNAc(b1-4)][Neu5Ac(a2-3)Gal(b1-4)GlcNAc(b1-2)[Neu5Ac(a2-3)Gal(b1-4)GlcNAc(b1-6)]Man(a1-6)]Man(b1-4)GlcNAc(b1-4)GlcNAc
Method in brief: as §1

[17] = target: Neu5Ac(a2-3)Gal(b1-4)GlcNAc(b1-2)[Neu5Ac(a2-3)Gal(b1-4)GlcNAc(b1-4)]Man(a1-3)[GlcNAc(b1-4)][Neu5Ac(a2-3)Gal(b1-4)GlcNAc(b1-4)Man(a1-6)]Man(b1-4)GlcNAc(b1-4)GlcNAc
Method in brief: as §1

[18] = target: Neu5Ac(a2-3)Gal(b1-4)GlcNAc(b1-2)[Neu5Ac(a2-3)Gal(b1-4)GlcNAc(b1-6)]Man(a1-6)[Neu5Ac(a2-3)Gal(b1-4)GlcNAc(b1-2)Man(a1-3)][GlcNAc(b1-4)]Man(b1-4)GlcNAc(b1-4)GlcNAc
Method in brief: as §1

[19] = target: Neu5Ac(a2-3)Gal(b1-4)GlcNAc(b1-3)Gal
Method in brief: as §1

[20] = target: Neu5Ac(a2-3)Gal(b1-4)GlcNAc(b1-3)Gal(b1-3)GlcNAc
Method in brief: as §1

[21] = target: Neu5Ac(a2-3)Gal(b1-4)GlcNAc(b1-3)Gal(b1-4)GlcNAc
Method in brief: as §1

[22] = target: Neu5Ac(a2-3)Gal(b1-4)GlcNAc(b1-3)Gal(b1-4)GlcNAc(b1-2)Man(a1-3)[Neu5Ac(a2-3)Gal(b1-4)GlcNAc(b1-3)Gal(b1-4)GlcNAc(b1-2)Man(a1-6)]Man(b1-4)GlcNAc(b1-4)GlcNAc
Method in brief: as §1

[23] = target: Neu5Ac(a2-3)Gal(b1-4)GlcNAc(b1-3)Gal(b1-4)GlcNAc(b1-3)Gal(b1-4)GlcNAc
Method in brief: as §1

[24] = target: Neu5Ac(a2-3)Gal(b1-4)GlcNAc(b1-3)Gal(b1-4)GlcNAc(b1-3)Gal(b1-4)GlcNAc(b1-2)Man(a1-3)[Neu5Ac(a2-3)Gal(b1-4)GlcNAc(b1-3)Gal(b1-4)GlcNAc(b1-3)Gal(b1-4)GlcNAc(b1-2)Man(a1-6)]GalNAc
Method in brief: as §1

[25] = target: Neu5Ac(a2-3)Gal(b1-4)GlcNAc(b1-3)Gal(b1-4)GlcNAc(b1-3)GalNAc
Method in brief: as §1

[26] = target: Neu5Ac(a2-3)Gal(b1-4)GlcNAc(b1-3)Gal(b1-4)GlcNAc(b1-3)[Neu5Ac(a2-3)Gal(b1-4)GlcNAc(b1-3)Gal(b1-4)GlcNAc(b1-6)]GalNAc
Method in brief: as §1

[27] = target: Neu5Ac(a2-3)Gal(b1-4)GlcNAc(b1-3)Gal(b1-4)GlcNAc(b1-6)[Gal(b1-3)]GalNAc
Method in brief: as §1

[28] = target: Neu5Ac(a2-3)Gal(b1-4)GlcNAc(b1-3)Gal(b1-4)[Fuc(a1-3)]GlcNAc
Method in brief: as §1

[29] = target: Neu5Ac(a2-3)Gal(b1-4)GlcNAc(b1-3)GalNAc
Method in brief: as §1

[30] = target: Neu5Ac(a2-3)Gal(b1-4)GlcNAc(b1-3)[Neu5Ac(a2-3)Gal(b1-4)GlcNAc(b1-6)]GalNAc
Method in brief: as §1

[31] = target: Neu5Ac(a2-3)Gal(b1-4)GlcNAc(b1-6)GalNAc
Method in brief: as §1

[32] = target: Neu5Ac(a2-3)Gal(b1-4)GlcNAc(b1-6)[Gal(b1-3)]GalNAc
Method in brief: as §1

[33] = target: Neu5Ac(a2-3)Gal(b1-4)GlcNAc(b1-6)[Neu5Ac(a2-3)Gal(b1-3)]GalNAc
Method in brief: as §1

[34] = target: Neu5Ac(a2-3)Gal(b1-4)GlcNAc6S
Method in brief: as §1

[35] = target: Neu5Ac(a2-3)Gal(b1-4)[Fuc(a1-3)]GlcNAc
Method in brief: as §1

[36] = target: Neu5Ac(a2-3)Gal(b1-4)[Fuc(a1-3)]GlcNAc(b1-2)Man
Method in brief: as §1

[37] = target: Neu5Ac(a2-3)Gal(b1-4)[Fuc(a1-3)]GlcNAc(b1-3)Gal
Method in brief: as §1

[38] = target: Neu5Ac(a2-3)Gal(b1-4)[Fuc(a1-3)]GlcNAc(b1-3)Gal(b1-4)GlcNAc
Method in brief: as §1

[39] = target: Neu5Ac(a2-3)Gal(b1-4)[Fuc(a1-3)]GlcNAc(b1-3)Gal(b1-4)[Fuc(a1-3)]GlcNAc(b1-3)Gal(b1-4)[Fuc(a1-3)]GlcNAc
Method in brief: as §1

[40] = target: Neu5Ac(a2-3)Gal(b1-4)[Fuc(a1-3)]GlcNAc(b1-3)GalNAc
Method in brief: as §1

[41] = target: Neu5Ac(a2-3)Gal(b1-4)[Fuc(a1-3)]GlcNAc(b1-6)[Gal(b1-3)]GalNAc
Method in brief: as §1

[42] = target: Neu5Ac(a2-3)Gal(b1-4)[Fuc(a1-3)]GlcNAc(b1-6)[Neu5Ac(a2-3)Gal(b1-3)]GalNAc
Method in brief: as §1

[43] = target: Neu5Ac(a2-3)Gal(b1-4)[Fuc(a1-3)]GlcNAc6S
Method in brief: as §1

[44] = target: Neu5Ac(a2-3)Gal6S(b1-4)GlcNAc
Method in brief: as §1

B1: MUB40 (Lactobacillus reuteri) (peptide)
chain: CTAEGIKKFEGDGYELFKDNFPAGEKFDNDDTNDQFYTVIF
- glycan array binding signal (z-score) [1]: -0.351
- glycan array binding signal (z-score) [2]: -0.471
- glycan array binding signal (z-score) [3]: -0.554
- glycan array binding signal (z-score) [4]: 0.452
- glycan array binding signal (z-score) [5]: 0.023
- glycan array binding signal (z-score) [6]: 1.11
- glycan array binding signal (z-score) [7]: -0.157
- glycan array binding signal (z-score) [8]: -0.114
- glycan array binding signal (z-score) [9]: -0.307
- glycan array binding signal (z-score) (Neu5Ac(a2-3)Gal(b1-4)Glc): -0.426
- glycan array binding signal (z-score) [10]: -0.366
- glycan array binding signal (z-score) [11]: -0.206
- glycan array binding signal (z-score) [12]: -0.511
- glycan array binding signal (z-score) [13]: -0.479
- glycan array binding signal (z-score) [14]: -0.593
- glycan array binding signal (z-score) [15]: -0.389
- glycan array binding signal (z-score) [16]: -0.441
- glycan array binding signal (z-score) [17]: -0.142
- glycan array binding signal (z-score) [18]: -0.11
- glycan array binding signal (z-score) [19]: 0.391
- glycan array binding signal (z-score) [20]: -0.406
- glycan array binding signal (z-score) [21]: -0.435
- glycan array binding signal (z-score) [22]: -0.348
- glycan array binding signal (z-score) [23]: 1.72
- glycan array binding signal (z-score) [24]: -0.149
- glycan array binding signal (z-score) [25]: -0.41
- glycan array binding signal (z-score) [26]: -0.286
- glycan array binding signal (z-score) [27]: -0.508
- glycan array binding signal (z-score) [28]: -0.502
- glycan array binding signal (z-score) [29]: -0.032
- glycan array binding signal (z-score) [30]: -0.685
- glycan array binding signal (z-score) [31]: 1.97
- glycan array binding signal (z-score) [32]: -0.296
- glycan array binding signal (z-score) [33]: -0.387
- glycan array binding signal (z-score) [34]: 0.385
- glycan array binding signal (z-score) [35]: 0.162
- glycan array binding signal (z-score) [36]: -0.305
- glycan array binding signal (z-score) [37]: -0.419
- glycan array binding signal (z-score) [38]: -0.046
- glycan array binding signal (z-score) [39]: 0.097
- glycan array binding signal (z-score) [40]: 0.351
- glycan array binding signal (z-score) [41]: -0.508
- glycan array binding signal (z-score) [42]: -0.58
- glycan array binding signal (z-score) [43]: -0.439
- glycan array binding signal (z-score) [44]: -0.048

— the supplement of paper PMC8728848
